# Source: PubChem BioAssay AID504832 (National Center for Advancing Translational Sciences (NCATS), 2011)
# Values joined by “and” are separate entries in the source; they are usually repeats but may differ in a detail not shown here. Identical values can stand only once. Among all 310,000 compounds or so, about 18,000 (5.8%) were called active. This list was built around the results that the source calls inconclusive (neither active nor inactive); the mix of calls is not that of the screen. Calls follow the shape of the dose curve; as a rule, active = well fitted inhibition curve with a large enough effect; inconclusive = small, poorly fitted or top-dose-only effect, or another doubt; inactive = no such curve, though single readings can be large or run the other way. Where the call is inconclusive, the potency comes from a doubtful curve fit.
# Assay: Primary qHTS for delayed death inhibitors of the malarial parasite plastid, 48 hour incubation
# Conditions: P. falciparum luciferase growth in erythrocytes; series mostly up to 28.7 µM; activity change, negative = inhibition: at the top concentration
# Outline: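 Cell-based growth assay: transgenic P. falciparum expressing firefly luciferase, cultured in red cells within RPMI 1640 containing 0.5% w/v Albumax, 24 mM bicarbonate and gentamycin. A drop in luciferase activity indicates inhibition.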
# % is scaled to controls: 0 for no effect and ±100 for the full control effect; potency is read from the fitted curve at half-maximal effect; tags tell the direction and shape of the fitted curve.
Structure (SMILES),Potency,"activity change, negative = inhibition"
CC(OC(=O)c1ccc(NS(=O)(=O)c2ccc3[nH]c(=O)[nH]c3c2)cc1)C(=O)Nc1ccc(Cl)cc1 (stereo not given),active: 0.828 µM,
CC(=O)Nc1ccc(S(=O)(=O)NNC(=O)c2cccc(Cl)c2)cc1,"inconclusive: 2.62 µM [inhibitor, full curve, poor fit]",
COc1ccc(CCNC(=O)c2ccc3nc(-c4ccco4)c(-c4ccco4)nc3c2)cc1OC,"inconclusive: 4.65 µM [inhibitor, partial curve]",
CNC(=O)c1ccccc1NC(=O)C1CC(=O)N(C(C)C)C1 (stereo not given),,inactive: 13.1%
O=C(NCCc1ccc(F)cc1)C1CCCCC1,,inactive: 41.4%
CCN1CCN(Cc2ccc(NC(=O)c3cc(NC(=O)c4cc5cccc(OC)c5o4)cc(OC)c3)cc2C(F)(F)F)CC1,active: 0.828 µM,
CCN(CC)N=Nc1ccc(S(=O)(=O)Nc2c(C)n(C)n(-c3ccccc3)c2=O)cc1,,inactive: 39.5%
Cc1ccc(NS(=O)(=O)c2cccc(C(=O)N3CCN(c4ncccn4)CC3)c2)cc1,"inconclusive: 10.4 µM [inhibitor, single point]",
Cc1cc(C)c(S(=O)(=O)N(CC(=O)N2CCCC2)C2CCCCC2)c(C)c1,"inconclusive: 14.7 µM [inhibitor, partial curve, poor fit]",
Cn1nc(C(=O)Nc2ccc(Cl)c(S(=O)(=O)N3CCOCC3)c2)c2ccccc2c1=O,"inconclusive: 10.4 µM [inhibitor, single point]",
COC(=O)c1ccc(/C=N/N2CCN(Cc3ccc(C)cc3C)CC2)cc1,"inconclusive: 11.7 µM [inhibitor, partial curve]",
O=C(CCn1cccc1)NC1CCCc2ccccc21 (stereo not given),,inactive: 5.63%
CC(C)CC(=O)Nc1ccccc1N1CCN(C(=O)c2ccccc2)CC1,"inconclusive: 10.4 µM [inhibitor, single point]",
COc1ccc(CN2CCc3c([nH]c4ccccc34)C2)c(OC)c1C,"inconclusive: 16.5 µM [inhibitor, single point]",
CC(NCCC(c1ccccc1)c1ccccc1)c1ccccc1 (stereo not given),active: 13.5 µM,
Cc1ccccc1SCCNC(=O)CCc1ccccc1,,inactive: 30%
CCc1ccc(NC(=O)C2CCN(S(=O)(=O)c3ccc4c(c3)CC(C)N4C(C)=O)CC2)cc1 (stereo not given),"inconclusive: 0.465 µM [inhibitor, partial curve]",
O=C(O)c1ccc(CSc2nnnn2-c2ccc(F)cc2)cc1,,inactive: 12.6%
COc1ccc(NC(=O)C2CC(=O)N(c3ccccc3C)C2)c(OC)c1 (stereo not given),,inactive: -27.3%
CN(Cc1cccc2cnccc12)C(=O)c1cc(COc2ccc(F)cc2F)on1,"inconclusive: 11.7 µM [inhibitor, partial curve, poor fit]",
CCOC(=O)C1(CCCc2ccccc2)CCN(Cc2cnc(C)s2)CC1,"inconclusive: 10.4 µM [inhibitor, partial curve]",
CCCCOP(=O)(c1ccc(N(C)C)cc1)C(Nc1ccccc1)c1ccccc1 (stereo not given),"inconclusive: 18.5 µM [inhibitor, single point]",
COc1ccc(/C=C2\SC(=S)N(CCCC(=O)NNC(=O)c3ccccc3O)C2=O)cc1,"inconclusive: 8.28 µM [inhibitor, partial curve]",
CCC(C)n1c(SCC(=O)NC(=O)Nc2ccc3c(c2)OCCO3)nc2ccccc2c1=O (stereo not given),"inconclusive: 16.5 µM [inhibitor, single point]",

Structure (SMILES),Potency,"activity change, negative = inhibition"
N#Cc1c(N2CCSCC2)nsc1-c1ccccc1Cl,"inconclusive: 9.28 µM [inhibitor, partial curve]",
C=C(C)c1cccc(C(C)(C)NC(=O)Nc2cc(C)ccc2OC)c1,"inconclusive: 13.1 µM [inhibitor, partial curve]",
Cn1c(CN2CCCCC2)nc2cc(NC(=O)c3ccccc3)ccc21,"inconclusive: 18.5 µM [inhibitor, single point]",
O=C(c1cccc(Oc2ccccc2)c1)N1CCN(c2ccccn2)CC1,,inactive: -15.4%
COc1cc(C(=O)OCC(=O)NCCC2=CCCCC2)ccc1OCC(C)C,"inconclusive: 14.7 µM [inhibitor, single point]",
N#CCC(CNc1ncc(C(F)(F)F)cc1Cl)OC(=O)c1ccc(Cl)cc1Cl (stereo not given),active: 2.94 µM,
CN(C)CCNC(=O)c1onc(CSc2ccc(F)cc2)c1C(=O)NCCN(C)C,active: 13.1 µM,
Cc1ccc(S(=O)(=O)NCC(=O)OCC(=O)c2cccs2)cc1,,inactive: -2.46%
Cc1nn(Cc2ccccc2)c(Cl)c1C(=O)NCc1ccco1,"inconclusive: 13.1 µM [inhibitor, single point]",
CNc1snc(C)c1C(=O)OCC(=O)N(C)Cc1ccccc1,,inactive: -0.549%
S=C1SCN(Cc2ccco2)CN1Cc1ccco1,"inconclusive: 2.33 µM [inhibitor, single point]",
COc1ccc(O)c(CN2CCCC(C(=O)c3sccc3C)C2)c1 (stereo not given),"inconclusive: 1.47 µM [inhibitor, full curve]",
Cc1ccc(C)c(N2CCN(S(=O)(=O)c3ccc4c(c3)OCCO4)CC2)c1,"inconclusive: 18.5 µM [inhibitor, single point]",
COc1ccc(Nc2ncc3c(n2)CC(c2ccc(OC)cc2)CC3=O)cc1 (stereo not given),"inconclusive: 18.5 µM [inhibitor, single point]",
CCC(Sc1nc2ncccc2[nH]1)C(=O)NCCc1ccccc1 (stereo not given),,inactive: 30.1%
COc1ccc(NC2c3ccccc3C(=O)N2Cc2ccccc2Cl)cc1OC (stereo not given),"inconclusive: 16.5 µM [inhibitor, single point]",
COc1ccccc1C(=O)NCCC(=O)Nc1ccc(S(=O)(=O)N2CCCC(C)C2)cc1 (stereo not given),active: 14.7 µM,
Cc1cccc(C)c1NC(=S)NC(=O)CCc1ccccc1,"inconclusive: 18.5 µM [inhibitor, single point]",
Cc1ccc(NC(=O)C2CC(=O)N(c3ccc4c(c3)OCCO4)C2)cc1S(=O)(=O)N(C)C (stereo not given),"inconclusive: 18.5 µM [inhibitor, single point]",
Cc1ccc(C(=O)Nc2ccc(N3CCOCC3)cc2)cc1,"inactive and inconclusive: 10.4 µM [activator, partial curve]",
Cc1cc(C)cc(C(=O)NCC(=O)OCc2nc(N)nc(Nc3ccccc3C)n2)c1,,inactive: -4.4%
CSc1nc2sc3c(c2c(=O)[nH]1)CC(C)(C)OC3,"inconclusive: 10.4 µM [inhibitor, partial curve]",
COc1ccc(C2C(C#N)=C(N)Oc3c2ccc2cccnc32)cc1OC (stereo not given),"inconclusive: 11.7 µM [inhibitor, single point]",
O=C(CN1CCN(S(=O)(=O)c2ccc(F)c(Cl)c2)CC1)N1CCc2ccccc21,"inconclusive: 18.5 µM [inhibitor, single point]",

Structure (SMILES),Potency,"activity change, negative = inhibition"
COc1ccc(N2C(=O)N(Cc3ccc(C)cc3)c3ccccc3S2(=O)=O)cc1,"inconclusive: 0.0033 µM [inhibitor, full curve, poor fit]",
COc1cc(/C(C)=N/NC(=O)c2ccc(CSc3nncn3C)cc2)cc(OC)c1OC,,inactive: -20%
Cc1[nH]nc2c1C(c1cccc(O)c1)C1=C(CC(C)(C)CC1=O)N2 (stereo not given),"inconclusive: 10.4 µM [inhibitor, partial curve]",
CN(C(=O)Cn1nc(Cl)ccc1=O)C1CCCN(Cc2ccccc2F)C1 (stereo not given),,inactive: 9.21%
CCOC(=O)Cn1c(=NC(=O)CSC(C)=O)sc2cc(F)ccc21,,inactive: 8.04%
COc1ccc(NC(C)=O)c(C)c1,,inactive: -0.94%
O=C(/C=C/c1ccc(-c2cccc([N+](=O)[O-])c2)o1)N1CCOCC1,,inactive: 97.1%
O=C(CS)Nc1ccc2ccccc2c1,,inactive: 2.35%
Cc1ccc(C(C(=O)NC2CCCCC2)N(Cc2cccnc2)C(=O)C2COc3ccccc3O2)o1 (stereo not given),active: 5.22 µM,
CCOC(=O)c1ccc(Oc2nc(SC)nc(N(C)C)n2)cc1,"inconclusive: 18.5 µM [inhibitor, single point]",
O=C(NCCN1CCOCC1)c1cc(Br)ccc1Cl,,inactive: 22.7%
Cc1ccc(CN2CCN(Cc3nc4ccccc4nc3C)CC2CCO)cc1 (stereo not given),"inconclusive: 18.5 µM [inhibitor, single point]",
COc1cc(/C=C(/NC(=O)c2ccccc2)C(=O)Nc2cccc(O)c2)c([N+](=O)[O-])cc1OC,"inconclusive: 2.33 µM [inhibitor, single point]",
COc1cc(NC(=O)c2ccccc2)c(C)cc1NC(=O)CC(CC(=O)O)c1ccccc1 (stereo not given),,inactive: 76%
CC1(CO)COC2(OC1)C(=O)Nc1ccccc12 (stereo not given),,inactive: -19.9%
CC1CN(C(=O)CCC(=O)NCc2ccccc2)c2cc(Cl)ccc2O1 (stereo not given),"inconclusive: 5.22 µM [inhibitor, partial curve, poor fit]",
CCNC(=O)c1c(NC(=O)c2cc(-c3cc(C)ccc3O)n[nH]2)sc2c1CCCC2,"inconclusive: 1.47 µM [inhibitor, partial curve, poor fit]",
CC(C)(NO)/C(=N/O)c1ccc(Br)cc1,"inconclusive: 10.4 µM [inhibitor, partial curve, poor fit]",
Cc1c(CC(=O)Nc2ccc(Cl)cc2)sc2ccc(Cl)cc12,"inconclusive: 18.5 µM [inhibitor, single point]",
Cn1cc(-c2nnnn2-c2cccc(C(F)(F)F)c2)c(C(F)(F)F)n1,"inconclusive: 9.28 µM [inhibitor, single point]",
CCN(CC)CCn1c(SCC(=O)Nc2ccc3c(c2)CCC3)nc2ccccc2c1=O,"inconclusive: 18.5 µM [inhibitor, single point]",
C#CCOCCOCCOCCNc1nc(N2CCN(C(=O)Cn3cc(CCCN=C(N)N)nn3)CC2)nc(N2CCN(C(=O)[C@H](CCCCN)n3cc(CC(C)O)nn3)CC2)n1 (stereo not given in full),"inconclusive: 18.5 µM [inhibitor, single point]",
